Laboratory results published in PMC4336329 (PLoS ONE, 2015).
Hit rate of the full screen: of about 310,000 compounds, about 14,000 (4.5%) showed an effect of 50% or more. The effect is printed as a negative number. This is one part of the list.

molecular target: human ether-à-go-go-related gene (hERG) potassium channel (human, UniProt Q12809); assay: primary screen, population patch clamp on CHO cells stably expressing hERG
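Also: peak tail current of the secondary pulse compared with the same well before compound.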

Chain of human ether-à-go-go-related gene (hERG) potassium channel (Q12809 whole entry, looked up): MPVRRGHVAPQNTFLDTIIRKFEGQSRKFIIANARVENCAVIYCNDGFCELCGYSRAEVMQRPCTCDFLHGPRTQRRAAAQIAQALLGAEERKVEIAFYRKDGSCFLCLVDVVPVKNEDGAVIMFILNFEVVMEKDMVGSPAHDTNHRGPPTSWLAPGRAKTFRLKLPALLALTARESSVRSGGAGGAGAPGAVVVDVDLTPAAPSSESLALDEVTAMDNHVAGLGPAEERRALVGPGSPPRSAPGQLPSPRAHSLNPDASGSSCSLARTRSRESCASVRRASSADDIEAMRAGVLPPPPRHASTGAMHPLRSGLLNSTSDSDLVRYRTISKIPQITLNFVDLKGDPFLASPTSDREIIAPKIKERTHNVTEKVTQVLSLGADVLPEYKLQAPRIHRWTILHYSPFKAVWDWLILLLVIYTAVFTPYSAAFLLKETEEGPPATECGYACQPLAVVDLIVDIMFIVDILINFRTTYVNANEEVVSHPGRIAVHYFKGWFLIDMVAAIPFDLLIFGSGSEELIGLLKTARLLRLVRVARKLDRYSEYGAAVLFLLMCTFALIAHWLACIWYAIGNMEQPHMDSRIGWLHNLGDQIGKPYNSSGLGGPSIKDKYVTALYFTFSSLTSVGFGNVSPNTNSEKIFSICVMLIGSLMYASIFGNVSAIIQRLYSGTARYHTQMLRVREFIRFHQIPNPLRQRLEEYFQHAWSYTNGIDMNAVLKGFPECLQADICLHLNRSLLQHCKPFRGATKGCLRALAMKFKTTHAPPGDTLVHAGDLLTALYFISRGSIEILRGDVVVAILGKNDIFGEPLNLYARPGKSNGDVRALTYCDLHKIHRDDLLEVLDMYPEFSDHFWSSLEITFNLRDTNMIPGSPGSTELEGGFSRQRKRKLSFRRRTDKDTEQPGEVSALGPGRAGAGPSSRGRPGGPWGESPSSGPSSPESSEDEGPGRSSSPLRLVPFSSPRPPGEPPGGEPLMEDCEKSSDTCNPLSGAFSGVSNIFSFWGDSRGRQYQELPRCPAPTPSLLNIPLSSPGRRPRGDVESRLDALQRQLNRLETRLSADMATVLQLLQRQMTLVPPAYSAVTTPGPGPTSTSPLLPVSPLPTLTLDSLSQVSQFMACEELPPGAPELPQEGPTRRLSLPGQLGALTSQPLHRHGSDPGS

| Structure (SMILES) | hERG current change (%, negative = inhibition) at 10uM [%] |
| --- | --- |
| C[n+]1c2n(c3ccccc31)N=C(c1ccc(-c3ccccc3)cc1)CS2.[Br-] | -79.7 |
| CCOC(=O)/C(=C/c1c(C)n(C)c2ccc([N+](=O)[O-])cc12)C(C)=O | -19.6 |
| CC1(C)CCC(=O)N(c2ccccc2)C1=O | 14.7 |
| O=C(Nc1ccncc1)c1ccc(Cl)c(Cl)c1 | -4.17 |
| CN(CC1COc2ccccc2O1)C(=O)CSc1ncnc2sccc12 (stereo not shown) | -43 |
| COc1cc(/C=C2/C(=O)N(C)C(=S)N2C)ccc1OCc1cccc(F)c1 | 16.3 |
| COc1ccc(C(=O)COC(=O)c2cc([N+](=O)[O-])ccc2N2CCOCC2)c(OC)c1 | -1.16 |
| CS(=O)(=O)N(CCC(=O)O)Cc1ccccc1 | -3.93 |
| O=[N+]([O-])c1ccc(N=Nc2c(Cl)cc(O)cc2Cl)cc1 | 18.2 |
| CCNC(=O)/C(C#N)=C/c1c(N2CCOCC2)nc2ccccn2c1=O | -4.68 |
| O=[N+]([O-])c1nn(-c2ccc(Cl)cc2)n(O)c1=NCc1cccnc1 | -3.26 |
| COc1cc(S(=O)(=O)NC2CCCC2)ccc1-n1cnnn1 | -3.76 |
| O=C(NC(=S)NCc1ccccc1)c1ccccc1[N+](=O)[O-] | 14.4 |
| COC(=O)C1=C(C)N(c2cc(C)cc(C)c2)/C(=C/c2ccco2)C1=O | 4.66 |
| Cc1ccc(OCC(=O)NC2CC(C)(C)NC(C)(C)C2)c(C)c1 | 1.36 |
| CCOc1ccc(NC(=O)N2CCN(CC)CC2)cc1 | 5.2 |
| Cc1ccc(-n2nc(C)c3c(C)cc(=O)[nH]c32)cc1 | -14.4 |
| C=CCn1c(C(C)NC(=O)c2ccc(C)cc2)n[nH]c1=S (stereo not shown) | 8.21 |
| COC(=O)Nc1ccc(C)cc1NC(=O)OC | 10.8 |
| COc1cccc(C(=O)Nc2sc(C(C)C)cc2C(N)=O)c1OC | -50.5 |
| Cc1noc(C)c1C(=O)NCc1ccccc1F | 25.7 |
| CC(=O)c1cccc(NC(=O)N2CCC(NC(=O)c3ccco3)CC2)c1 | -44.5 |
| Cc1cccc(OCCCn2c(CO)nc3ccccc32)c1 | -32.3 |

| Structure (SMILES) | hERG current change (%, negative = inhibition) at 10uM [%] |
| --- | --- |
| CNC.Cc1cccn2c(NCC3CCCO3)c(C(C)C)nc12.Cl (stereo not shown) | -12.7 |
| CCc1ccc2[nH]c(=O)c(CN(Cc3ccc4c(c3)OCO4)Cc3nnnn3C3CCCC3)cc2c1 | -8.95 |
| Cc1cc(C)cc(C(N)=Nc2cccc(C#N)c2)c1 | -39.7 |
| Cc1ccc(C(=O)NNC2=Nc3cccc4cccc2c34)cc1 | 11.5 |
| CCOC(=O)c1ccc(S(=O)(=O)n2c(=O)oc3ccccc32)cc1 | 9.59 |
| COCCNc1nnc(SCC(=O)NNC(=O)c2ccc([N+](=O)[O-])cc2)s1 | -7.08 |
| O=C(OCc1ccc(Cl)cc1)c1cnccn1 | 7.58 |
| CCCC1(C)SC(NC(C)=O)=NN1C(C)=O (stereo not shown) | 0.971 |
| CCOc1ccc(NC(=O)CSc2nnc(-c3ccco3)n2C)cc1 | -36.1 |
| COCCSc1nnc(NC(=O)c2ccc(NC(C)=O)cc2)s1 | 21 |
| CCOC(=O)c1c(NC(=O)CSc2ncn[nH]2)sc(C(=O)N(C)C)c1C | -9 |
| O=C1NC(=Nc2ccccc2)/C(=C/c2ccco2)S1 | 12.4 |
| COc1ccc(N2C(=O)CC(N3CCN(c4cccc(Cl)c4)CC3)C2=O)cc1 (stereo not shown) | 8.31 |
| O=C(COC(=O)C1CC1)NCc1ccccc1Cl | 15.7 |
| COC(=O)c1ccc(Cl)c(NC(=O)CN(c2ccc3c(c2)OCO3)S(C)(=O)=O)c1 | 7.68 |
| Cc1ccc(NC(=O)[C@@H]2CCCN2S(=O)(=O)c2ccccc2F)cc1S(=O)(=O)N1CCOCC1 | -8.51 |
| COc1ccc(S(=O)(=O)N2CCN(CC(=O)c3ccc(O)c(O)c3)CC2)cc1 | -45 |
| Cc1ccc(/C(N)=N/OC(=O)c2cccs2)cc1 | 11.6 |
| CC1(C)COC(Cn2c3ccccc3c3ccccc32)O1 (stereo not shown) | 15.1 |
| CCNc1ncnc2c1cnn2C | 8.35 |
| c1ccc(Oc2cccc(NC3=NCCC3)c2)cc1 | -12.6 |
| Cc1ccc(CNC(=O)C2CCN(S(=O)(=O)c3cccc4nonc34)CC2)cc1 | 6.37 |
| Cc1cccc(C)c1NC(=O)CNC(=O)c1ccc(NS(=O)(=O)c2ccc3[nH]c(=O)[nH]c3c2)cc1 | 21.2 |
